Reference: PubChem BioAssay AID504832 (National Center for Advancing Translational Sciences (NCATS), 2011)
Out of some 310,000 compounds screened, about 18,000 (5.8%) were called active. This list was built around the results that the source calls inconclusive (neither active nor inactive); the mix of calls is not that of the screen. The call rests on the fitted dose curve; in most records, active means well fitted inhibition curve with a large enough effect; inconclusive means small, poorly fitted or top-dose-only effect, or another doubt; inactive means no such curve, though single readings can be large or run the other way. Potencies of inconclusive entries are left out as doubtful fits.

Experiment: Primary qHTS for delayed death inhibitors of the malarial parasite plastid, 48 hour incubation
Settings: P. falciparum luciferase growth in erythrocytes; series mostly up to 28.7 µM
Method in brief: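 Luciferase-expressing parasites in RBCs, 2% Hct / 0.1% parasitemia final; RPMI 1640 + 0.5% Albumax; 37 C, 5% CO2, one generation; luminescence read-out, lower signal = inhibition.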
Potency means the concentration at half of the fitted maximal effect; tags describe the fitted curve by direction and shape.

SMILES | Potency
CCOC(=O)CSc1nnc(-c2ccc(OC)cc2OC)o1 | inactive
COc1cccc2c1OC1(CCN(C(C)C)CC1)N1N=C(c3cccnc3)CC21 (centres undefined) | inactive
COc1ccccc1OCCNC(=O)c1cc(SC)ccc1Cl | inactive
COc1ccc2c3c(c(=O)oc2c1)C1O[C@](c2ccsc2)(Cc2ccccc21)O3 | inconclusive [inhibitor, full curve]
CCOc1ccc(CNC(=O)NS(=O)(=O)c2ccc(OC)cc2)cc1 | inactive
COc1ccc(NC(=O)c2cccc(S(=O)(=O)NCc3ccccc3)c2)cc1S(N)(=O)=O | inconclusive [inhibitor, single point]
O=C(NNC(=S)NC(=O)c1cccs1)c1ccc(NC(=O)c2ccccc2)cc1 | inconclusive [inhibitor, single point]
COc1cc2c(cc1OC)-c1cc(Nc3ccc(C)cc3)nc(=O)n1CC2 | inconclusive [inhibitor, partial curve, poor fit]
Cc1nc2c(C)cccn2c1/C(O)=C1\C(=O)C(=O)N(CCN(C)C)C1c1ccccc1 (centres undefined) | inactive
COc1cc(C(=O)NCC(c2cccs2)N2CCc3ccccc32)cc(OC)c1OC (centres undefined) | inconclusive [inhibitor, single point]
CCOC(=O)C1=NN(c2ccc(OC)cc2)C(c2ccccc2)CC1=O (centres undefined) | inconclusive [inhibitor, partial curve]
O=C(O)c1ncn(Cc2ccc(Br)cc2)c1C(=O)O | inconclusive [inhibitor, partial curve, poor fit]
O=C(NCC1CCCN1S(=O)(=O)c1cccs1)c1ccccc1F (centres undefined) | inconclusive [inhibitor, single point]
O=C(CNC(=O)c1ccccc1)NC1(C(=O)NC2CCCC2)CCCCC1 | inconclusive [inhibitor, single point]
O=C(COc1ccc(S(=O)(=O)N2CCCCC2)cc1)N1CCCC1 | inconclusive [inhibitor, partial curve]
O=S(=O)(c1ccccc1)c1cnc(-c2cccnc2)nc1-c1ccccc1 | inconclusive [inhibitor, single point]
c1ccc(CCCNCC2COc3ccccc3O2)cc1 (centres undefined) | inactive
O=C(O)c1ccc(NCc2ccc(Br)cc2)cc1 | inactive
Cc1ccc[n+](C(C)C(=O)Nc2ccc(C)c(C)c2)c1 (centres undefined) | inconclusive [inhibitor, partial curve, poor fit]
CC[C@@H]1CC=C[C@H]2[C@H]1C(=O)N(Cc1ccccc1)[C@H]2c1ccc(C(F)(F)F)cc1 | inconclusive [inhibitor, single point]
Cc1ccc(CSC2=Nc3ccccc3C3=NC(CC(=O)NCc4ccco4)C(=O)N23)cc1 (centres undefined) | active: 1.31 µM
CCSc1ncc(/C=N/Nc2ccc(Cl)cc2)n1C | inconclusive [inhibitor, partial curve, poor fit]

SMILES | Potency
CSc1cccc(NC(=O)c2cnccn2)c1 | inactive
Cc1ccc(C2CC(=O)C(C=NCCN3CCN(C(=S)Nc4ccc(F)cc4)CC3)=C(O)C2)cc1 (centres undefined) | inconclusive [inhibitor, single point]
Cc1ccc(Nc2nc(N)nc(CN3CCCCCC3)n2)c(C)c1 | inconclusive [inhibitor, single point]
CC(C)(C)Nc1nc(NN)nc(NC(C)(C)C)n1 | inconclusive [inhibitor, partial curve, poor fit]
CCOC(=O)C1=C(C)NC(=S)NC1c1ccsc1 (centres undefined) | inactive
COc1ccc(S(=O)(=O)N2CCCC2C(=O)Nc2nc3c(s2)CCCC3)cc1 (centres undefined) | inconclusive [inhibitor, single point]
COc1ccc(NC(=O)c2c3c(nc4ccccc24)CCC3)cc1 | inconclusive [inhibitor, full curve, poor fit]
CC(C)C(=O)N(c1ccc2oc(=O)sc2c1)S(=O)(=O)c1ccccc1 | inconclusive [inhibitor, partial curve]
Cc1ccc2cc(C(c3nnnn3C(C)(C)C)N3CCCC3)c(=O)[nH]c2c1C (centres undefined) | active: 3.29 µM
C#CCOCCOCCOCCNc1nc(N2CCN(C(=O)[C@H](Cc3cc4ccccc4[nH]3)n3cc([C@@H](N)C(C)CC)nn3)CC2)nc(N2CCN(C(=O)[C@H](Cc3cc4ccccc4[nH]3)n3cc([C@@H](N)Cc4ccc(O)cc4)nn3)CC2)n1 (some centres undefined) | inconclusive [inhibitor, partial curve, poor fit]
CC1(C(=O)Nc2c(F)c(F)c(F)c(F)c2F)CC1(Br)Br (centres undefined) | inconclusive [inhibitor, partial curve]
O=C(Nc1ccc(Br)cc1F)c1cccnc1 | inactive
CCCN1C2CCCC1CC(NC(=O)Nc1ccc(C(C)C)cc1)C2 (centres undefined) | inconclusive [inhibitor, single point]
NC(=O)C1CCN(C(=O)COc2ccc(S(=O)(=O)NCc3ccccc3)cc2Cl)CC1 | inconclusive [inhibitor, partial curve, poor fit]
COc1ccc(C(=O)NCCCNC(=O)c2cc3ccccc3[nH]2)cc1OC | inconclusive [inhibitor, partial curve, poor fit]
CCOc1cccc(C2/C(=C(/O)c3ccc4c(c3)CC(C)O4)C(=O)C(=O)N2Cc2cccnc2)c1 (centres undefined) | inconclusive [inhibitor, single point]
Cc1ccc(-c2csc(=Nc3cccnc3)n2CCCN2CCCC2=O)cc1C | inconclusive [inhibitor, single point]
Cc1cccc(N2CC(C(=O)NCc3ccco3)CC2=O)c1C (centres undefined) | inactive
CCOc1cc(CN2CCSCC2)ccc1O | inactive
CC(NC(=O)C1CCN(c2nnc(N3CCCC3=O)s2)CC1)c1ccccc1 (centres undefined) | inconclusive [inhibitor, single point]
CC(C)NC(=O)CCCn1c(=S)[nH]c2cc3c(cc2c1=O)OCO3 | inconclusive [inhibitor, single point]
CN1CCN(C(=O)C2=C[C@@H](c3csc4ccccc34)C[C@@H](OCc3ccc(CO)cc3)O2)CC1 | inconclusive [inhibitor, single point]

SMILES | Potency
COc1ccc(-n2cc(CN[C@H]3CCCCNC3=O)c(-c3cccc(F)c3)n2)cc1 | inconclusive [inhibitor, single point]
Cc1cccc(C)c1Nc1nnc(SCc2cn3cccc(C)c3n2)s1 | inconclusive [inhibitor, single point]
COC(=O)c1[nH]c2ccc(Cl)cc2c1NC(=O)CN1CCc2cc(OC)c(OC)cc2C1 | inconclusive [inhibitor, single point]
O=C(CSc1nc2cc(Cl)ccc2o1)Nc1ccc(N2CCOCC2)cc1 | inactive
CC(C)N(C(=O)CSc1nnnn1-c1ccc2c(c1)OCO2)C(C)C | inactive
COc1cc(OC)c(OC)cc1/C=C1\Oc2cc(OCC(=O)N3Cc4ccccc4C[C@H]3C(=O)O)ccc2C1=O | inconclusive [inhibitor, single point]
CCC(=O)OCC(=O)[C@@]1(OC(=O)CC)[C@@H](C)C[C@H]2[C@@H]3CCC4=CC(=O)C=C[C@]4(C)[C@@]3(Cl)[C@@H](O)C[C@@]21C | inconclusive [inhibitor, single point]
CCOc1ccc2nc(NCCNC(=S)NCCCN(C)C)c(C#N)cc2c1 | inconclusive [inhibitor, partial curve]
CCOP(=O)(OCC)C(NC(=O)Nc1ccc(Cl)cc1)c1ccccc1 (centres undefined) | inconclusive [inhibitor, single point]
COc1ccc(Cl)cc1NS(=O)(=O)c1c(C)[nH]c(=O)[nH]c1=O | inactive
CN(C)CCn1c(=O)n(-c2ccc(F)cc2)c(=O)c2c3c(sc21)CCCCC3 | inconclusive [inhibitor, single point]
O=C(C1CCCC1)N1CCC(CC2CC(c3ccc(Cl)cc3)=NO2)(C(=O)NCC2CCCCC2)CC1 (centres undefined) | inconclusive [inhibitor, full curve, poor fit]
CCOc1ccc(NC(=O)CN(C)C(=O)C2CSC3(C)CCC(=O)N23)cc1OCC (centres undefined) | inconclusive [inhibitor, single point]
CS(=O)(=O)N1CCc2cc(C(=O)Nc3ccc(COCC(F)(F)F)cc3)ccc21 | inconclusive [inhibitor, partial curve, poor fit]
COc1ccc(OC)c(C2CC(=O)c3c([nH]c(C(=O)OCC4CCCO4)c3C)C2)c1 (centres undefined) | inconclusive [inhibitor, partial curve, poor fit]
O=C(COc1ccc(S(=O)(=O)N2CCOCC2)cc1)N1CCCCCC1 | inconclusive [inhibitor, partial curve]
O=C(Nc1ccc(S(=O)(=O)N2CCOCC2)cc1)c1ccc(Cl)cc1Cl | inactive
COc1ccc(-n2c(COc3cccc(C)c3)nnc2SCC(=O)O)cc1 | inactive
O=C(NCCN1CCOCC1)NC1(C(F)(F)F)Oc2ccccc2O1 | inconclusive [inhibitor, single point]
Cc1ccc(/C=N/c2sc3c(c2C#N)CCC3)o1 | inconclusive [inhibitor, partial curve, poor fit]
